B1: UAGUGAC (DNA:RNA)
RNA: GGGAGACCGGAAUUCAGAUUGUCCUAGUGACUUAAAUCCCGUCGUAGCCACCA
DNA 1: CAATCTGAATTCCGGTCTCCC
DNA 2: TGGTGGCTACGACGGGATT
B2: CAACAGU (DNA:RNA)
RNA: B1 RNA with U25C, G27A, U28C, G29A, A30G, C31U
DNA 1: CAATCTGAATTCCGGTCTCCC
DNA 2: TGGTGGCTACGACGGGATT
B3: AUCAUAC (DNA:RNA)
RNA: B1 RNA with U25A, A26U, G27C, U28A, G29U
DNA 1: CAATCTGAATTCCGGTCTCCC
DNA 2: TGGTGGCTACGACGGGATT
B4: UUUAUAC (DNA:RNA)
RNA: B1 RNA with A26U, G27U, U28A, G29U
DNA 1: CAATCTGAATTCCGGTCTCCC
DNA 2: TGGTGGCTACGACGGGATT
B5: UCGGCUA (DNA:RNA)
RNA: B1 RNA with A26C, U28G, G29C, A30U, C31A
DNA 1: CAATCTGAATTCCGGTCTCCC
DNA 2: TGGTGGCTACGACGGGATT
B6: CGGUGGG (DNA:RNA)
RNA: B1 RNA with U25C, A26G, A30G, C31G
DNA 1: CAATCTGAATTCCGGTCTCCC
DNA 2: TGGTGGCTACGACGGGATT
B7: UAGUGGA (DNA:RNA)
RNA: B1 RNA with A30G, C31A
DNA 1: CAATCTGAATTCCGGTCTCCC
DNA 2: TGGTGGCTACGACGGGATT
B8: UUCGGCC (DNA:RNA)
RNA: B1 RNA with A26U, G27C, U28G, A30C
DNA 1: CAATCTGAATTCCGGTCTCCC
DNA 2: TGGTGGCTACGACGGGATT
B9: AGUGGCU (DNA:RNA)
RNA: B1 RNA with U25A, A26G, G27U, U28G, A30C, C31U
DNA 1: CAATCTGAATTCCGGTCTCCC
DNA 2: TGGTGGCTACGACGGGATT
B10: AAGUUAU (DNA:RNA)
RNA: B1 RNA with U25A, G29U, C31U
DNA 1: CAATCTGAATTCCGGTCTCCC
DNA 2: TGGTGGCTACGACGGGATT
B11: AAUCUUG (DNA:RNA)
RNA: B1 RNA with U25A, G27U, U28C, G29U, A30U, C31G
DNA 1: CAATCTGAATTCCGGTCTCCC
DNA 2: TGGTGGCTACGACGGGATT
B12: GCUGCAU (DNA:RNA)
RNA: B1 RNA with U25G, A26C, G27U, U28G, G29C, C31U
DNA 1: CAATCTGAATTCCGGTCTCCC
DNA 2: TGGTGGCTACGACGGGATT
B13: AAGCGCA (DNA:RNA)
RNA: B1 RNA with U25A, U28C, A30C, C31A
DNA 1: CAATCTGAATTCCGGTCTCCC
DNA 2: TGGTGGCTACGACGGGATT
B14: UCGAUCC (DNA:RNA)
RNA: B1 RNA with A26C, U28A, G29U, A30C
DNA 1: CAATCTGAATTCCGGTCTCCC
DNA 2: TGGTGGCTACGACGGGATT
B15: CAGGAAA (DNA:RNA)
RNA: B1 RNA with U25C, U28G, G29A, C31A
DNA 1: CAATCTGAATTCCGGTCTCCC
DNA 2: TGGTGGCTACGACGGGATT
B16: AUCCCCU (DNA:RNA)
RNA: GGGAGACCGGAAUUCAGAUUGUCCAUCCCCUUUAAAUCCCGUCGUAGCCACCA
DNA 1: CAATCTGAATTCCGGTCTCCC
DNA 2: TGGTGGCTACGACGGGATT
B17: GUGUCAU (DNA:RNA)
RNA: B16 RNA with A25G, C27G, C28U, C30A
DNA 1: CAATCTGAATTCCGGTCTCCC
DNA 2: TGGTGGCTACGACGGGATT
B18: UUAAUCC (DNA:RNA)
RNA: B16 RNA with A25U, C27A, C28A, C29U, U31C
DNA 1: CAATCTGAATTCCGGTCTCCC
DNA 2: TGGTGGCTACGACGGGATT
B19: AAAUUAC (DNA:RNA)
RNA: B1 RNA with U25A, G27A, G29U
DNA 1: CAATCTGAATTCCGGTCTCCC
DNA 2: TGGTGGCTACGACGGGATT
B20: GACAUCC (DNA:RNA)
RNA: B16 RNA with A25G, U26A, C28A, C29U, U31C
DNA 1: CAATCTGAATTCCGGTCTCCC
DNA 2: TGGTGGCTACGACGGGATT

This is an account of results in publication PMC9911399, “Two distinct binding modes provide the RNA-binding protein RbFox with extraordinary sequence specificity”.

Changes are numbered by the printed parent chain; changes in the protein carry UniProt numbers. This is one part of the list.

For this test, the target named is T1, RBFOX1 RRM RbFoxmut (Fox-RRM*) (Homo sapiens, UniProt Q9NWB1 109-208, R118D;E147R;N151S;E152T).
T1 sequence: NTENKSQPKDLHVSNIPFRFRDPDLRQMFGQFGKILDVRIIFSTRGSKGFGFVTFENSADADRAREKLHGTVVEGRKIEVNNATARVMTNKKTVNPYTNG
Kind of test: EMSA; HiTS-Eq, 1 nM pool, 10 min; buffer printed only for the single-RNA assays: 10 mM Tris pH 7.5, 150 mM NaCl, 3.4 mM EDTA, 0.001% NP-40, 30 C. Particulars: tags: His6 N-terminal (pET28a); label: 5' 32P. An outline of the steps: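 Purified wild-type or mutant RbFox RRM at increasing concentrations was equilibrated with 1 nM of 5′-radiolabelled RNA carrying 7 randomized nucleotides for 10 min in 50 µL. Unbound RNA was separated by 8% native PAGE and sequenced. Relative association constants came from read-count changes of each RNA species compared with the control reaction, normalised to the cognate motif.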
A general note: Mobility shift assays separate free from complexed probe on a gel.
Consider B1, for which the binding signal is 0.067 KA relative to UGCAUGU.
To B2 belongs 0.0564 KA relative to UGCAUGU; to B3, 0.108 KA relative to UGCAUGU; to B4, 0.118 KA relative to UGCAUGU.
The value for B5 was 0.106 KA relative to UGCAUGU.
For the molecule B6, the binding signal is 0.0723 KA relative to UGCAUGU.
For B7, the binding signal is 0.086 KA relative to UGCAUGU.
The value for B8 was 0.156 KA relative to UGCAUGU.
For B9, the binding signal was 0.144 KA relative to UGCAUGU.
The value for B10 was 0.118 KA relative to UGCAUGU; that for B11 was 0.0858 KA relative to UGCAUGU.
The value for B12 was 0.185 KA relative to UGCAUGU.
The value for B13 was 0.125 KA relative to UGCAUGU; that for B14 was 0.0544 KA relative to UGCAUGU.
Consider B15, for which the binding signal was 0.0873 KA relative to UGCAUGU.
To B16 belongs 0.0663 KA relative to UGCAUGU; to B17, 0.103 KA relative to UGCAUGU; to B18, 0.0578 KA relative to UGCAUGU.
To B19 belongs 0.107 KA relative to UGCAUGU.
To B20 belongs 0.0501 KA relative to UGCAUGU.
